# Assay results: article PMC9911399, “Two distinct binding modes provide the RNA-binding protein RbFox with extraordinary sequence specificity”
# Residue numbers refer to the chain shown, from its start. This is one part of the list.
# T1: RBFOX1 RRM (Homo sapiens, UniProt Q9NWB1 109-208)
# T1 sequence: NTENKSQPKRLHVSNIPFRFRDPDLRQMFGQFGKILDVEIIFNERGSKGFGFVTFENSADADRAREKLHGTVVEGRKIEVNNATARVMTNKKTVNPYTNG
# B1: UUGAAGA (DNA:RNA)
# RNA: GGGAGACCGGAAUUCAGAUUGUCCUUGAAGAUUAAAUCCCGUCGUAGCCACCA
# DNA 1: CAATCTGAATTCCGGTCTCCC
# DNA 2: TGGTGGCTACGACGGGATT
# B2: GAAGCGC (DNA:RNA)
# RNA: B1 RNA with U25G, U26A, G27A, A28G, A29C, A31C
# DNA 1: CAATCTGAATTCCGGTCTCCC
# DNA 2: TGGTGGCTACGACGGGATT
# B3: GUCUAUC (DNA:RNA)
# RNA: B1 RNA with U25G, G27C, A28U, G30U, A31C
# DNA 1: CAATCTGAATTCCGGTCTCCC
# DNA 2: TGGTGGCTACGACGGGATT
# B4: AUACUAG (DNA:RNA)
# RNA: B1 RNA with U25A, G27A, A28C, A29U, G30A, A31G
# DNA 1: CAATCTGAATTCCGGTCTCCC
# DNA 2: TGGTGGCTACGACGGGATT
# B5: AGGAUGA (DNA:RNA)
# RNA: B1 RNA with U25A, U26G, A29U
# DNA 1: CAATCTGAATTCCGGTCTCCC
# DNA 2: TGGTGGCTACGACGGGATT
# B6: CAAGCAG (DNA:RNA)
# RNA: GGGAGACCGGAAUUCAGAUUGUCCCAAGCAGUUAAAUCCCGUCGUAGCCACCA
# DNA 1: CAATCTGAATTCCGGTCTCCC
# DNA 2: TGGTGGCTACGACGGGATT
# B7: UCUCUGU (DNA:RNA)
# RNA: B1 RNA with U26C, G27U, A28C, A29U, A31U
# DNA 1: CAATCTGAATTCCGGTCTCCC
# DNA 2: TGGTGGCTACGACGGGATT
# B8: UUGGAUA (DNA:RNA)
# RNA: B1 RNA with A28G, G30U
# DNA 1: CAATCTGAATTCCGGTCTCCC
# DNA 2: TGGTGGCTACGACGGGATT
# B9: ACUAAAU (DNA:RNA)
# RNA: B1 RNA with U25A, U26C, G27U, G30A, A31U
# DNA 1: CAATCTGAATTCCGGTCTCCC
# DNA 2: TGGTGGCTACGACGGGATT
# B10: ACCGUUG (DNA:RNA)
# RNA: B6 RNA with C25A, A26C, A27C, C29U, A30U
# DNA 1: CAATCTGAATTCCGGTCTCCC
# DNA 2: TGGTGGCTACGACGGGATT
# B11: CGAAUCU (DNA:RNA)
# RNA: B6 RNA with A26G, G28A, C29U, A30C, G31U
# DNA 1: CAATCTGAATTCCGGTCTCCC
# DNA 2: TGGTGGCTACGACGGGATT
# B12: UUUAAGU (DNA:RNA)
# RNA: B1 RNA with G27U, A31U
# DNA 1: CAATCTGAATTCCGGTCTCCC
# DNA 2: TGGTGGCTACGACGGGATT
# B13: GGGAUAG (DNA:RNA)
# RNA: B6 RNA with C25G, A26G, A27G, G28A, C29U
# DNA 1: CAATCTGAATTCCGGTCTCCC
# DNA 2: TGGTGGCTACGACGGGATT
# B14: UCCCUUC (DNA:RNA)
# RNA: B1 RNA with U26C, G27C, A28C, A29U, G30U, A31C
# DNA 1: CAATCTGAATTCCGGTCTCCC
# DNA 2: TGGTGGCTACGACGGGATT
# B15: AAACGGA (DNA:RNA)
# RNA: B6 RNA with C25A, G28C, C29G, A30G, G31A
# DNA 1: CAATCTGAATTCCGGTCTCCC
# DNA 2: TGGTGGCTACGACGGGATT
# B16: ACGCCGC (DNA:RNA)
# RNA: B1 RNA with U25A, U26C, A28C, A29C, A31C
# DNA 1: CAATCTGAATTCCGGTCTCCC
# DNA 2: TGGTGGCTACGACGGGATT
# B17: UCACAGU (DNA:RNA)
# RNA: B1 RNA with U26C, G27A, A28C, A31U
# DNA 1: CAATCTGAATTCCGGTCTCCC
# DNA 2: TGGTGGCTACGACGGGATT
# B18: CCAUGGA (DNA:RNA)
# RNA: B6 RNA with A26C, G28U, C29G, A30G, G31A
# DNA 1: CAATCTGAATTCCGGTCTCCC
# DNA 2: TGGTGGCTACGACGGGATT
# B19: UCCUUAG (DNA:RNA)
# RNA: B6 RNA with C25U, A26C, A27C, G28U, C29U
# DNA 1: CAATCTGAATTCCGGTCTCCC
# DNA 2: TGGTGGCTACGACGGGATT
# B20: AAGGCCU (DNA:RNA)
# RNA: B6 RNA with C25A, A27G, A30C, G31U
# DNA 1: CAATCTGAATTCCGGTCTCCC
# DNA 2: TGGTGGCTACGACGGGATT
# B21: UGCGCGC (DNA:RNA)
# RNA: B6 RNA with C25U, A26G, A27C, A30G, G31C
# DNA 1: CAATCTGAATTCCGGTCTCCC
# DNA 2: TGGTGGCTACGACGGGATT
# B22: GCCAUGC (DNA:RNA)
# RNA: B1 RNA with U25G, U26C, G27C, A29U, A31C
# DNA 1: CAATCTGAATTCCGGTCTCCC
# DNA 2: TGGTGGCTACGACGGGATT
# B23: CGGGGAC (DNA:RNA)
# RNA: B6 RNA with A26G, A27G, C29G, G31C
# DNA 1: CAATCTGAATTCCGGTCTCCC
# DNA 2: TGGTGGCTACGACGGGATT
# B24: CUUACAC (DNA:RNA)
# RNA: B6 RNA with A26U, A27U, G28A, G31C
# DNA 1: CAATCTGAATTCCGGTCTCCC
# DNA 2: TGGTGGCTACGACGGGATT
# B25: UGAUAUA (DNA:RNA)
# RNA: B1 RNA with U26G, G27A, A28U, G30U
# DNA 1: CAATCTGAATTCCGGTCTCCC
# DNA 2: TGGTGGCTACGACGGGATT
# B26: AUUACGU (DNA:RNA)
# RNA: B1 RNA with U25A, G27U, A29C, A31U
# DNA 1: CAATCTGAATTCCGGTCTCCC
# DNA 2: TGGTGGCTACGACGGGATT
# B27: CAGCGUA (DNA:RNA)
# RNA: B6 RNA with A27G, G28C, C29G, A30U, G31A
# DNA 1: CAATCTGAATTCCGGTCTCCC
# DNA 2: TGGTGGCTACGACGGGATT
# B28: GACCGCU (DNA:RNA)
# RNA: B6 RNA with C25G, A27C, G28C, C29G, A30C, G31U
# DNA 1: CAATCTGAATTCCGGTCTCCC
# DNA 2: TGGTGGCTACGACGGGATT
# B29: ACCCUGU (DNA:RNA)
# RNA: B1 RNA with U25A, U26C, G27C, A28C, A29U, A31U
# DNA 1: CAATCTGAATTCCGGTCTCCC
# DNA 2: TGGTGGCTACGACGGGATT
# B30: UUGAGUA (DNA:RNA)
# RNA: B1 RNA with A29G, G30U
# DNA 1: CAATCTGAATTCCGGTCTCCC
# DNA 2: TGGTGGCTACGACGGGATT
# B31: GGUACGC (DNA:RNA)
# RNA: B1 RNA with U25G, U26G, G27U, A29C, A31C
# DNA 1: CAATCTGAATTCCGGTCTCCC
# DNA 2: TGGTGGCTACGACGGGATT
# Biological target: T1, RBFOX1 RRM
# Test: EMSA; HiTS-Eq, 1 nM pool, 10 min; buffer printed only for the single-RNA assays: 10 mM Tris pH 7.5, 150 mM NaCl, 3.4 mM EDTA, 0.001% NP-40, 30 C
# Settings: tags: His6 N-terminal (pET28a); label: 5' 32P
# In short: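 Purified RbFox RRM, wild type or mutant, was incubated for 10 min in 50 µL with 1 nM of a 5′-radiolabelled RNA pool carrying 7 randomized nucleotides, whose flanks were annealed to DNA oligonucleotides, over a series of increasing protein concentrations. Unbound RNA was resolved on 8% native PAGE, cut out, reverse-transcribed, barcoded by PCR and sequenced on an Illumina HiSeq 2500. Relative association constants were derived from changes in read counts for each RNA species versus the control reaction and normalised to the cognate motif.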
row,Binder,binding signal
1,B1,0.0156 KA relative to UGCAUGU
2,B2,0.0138 KA relative to UGCAUGU
3,B3,0.0115 KA relative to UGCAUGU
4,B4,0.00435 KA relative to UGCAUGU
5,B5,0.0193 KA relative to UGCAUGU
6,B6,0.0052 KA relative to UGCAUGU
7,B7,0.0181 KA relative to UGCAUGU
8,B8,0.0092 KA relative to UGCAUGU
9,B9,0.00155 KA relative to UGCAUGU
10,B10,0.0109 KA relative to UGCAUGU
11,B11,0.0102 KA relative to UGCAUGU
12,B12,0.0116 KA relative to UGCAUGU
13,B13,0.0337 KA relative to UGCAUGU
14,B14,0.00495 KA relative to UGCAUGU
15,B15,0.0022 KA relative to UGCAUGU
16,B16,0.0107 KA relative to UGCAUGU

row,Binder,binding signal
1,B17,0.00466 KA relative to UGCAUGU
2,B18,0.0121 KA relative to UGCAUGU
3,B19,0.00853 KA relative to UGCAUGU
4,B20,0.0074 KA relative to UGCAUGU
5,B21,0.0256 KA relative to UGCAUGU
6,B22,0.0131 KA relative to UGCAUGU
7,B23,0.0143 KA relative to UGCAUGU
8,B24,0.00166 KA relative to UGCAUGU
9,B25,0.0076 KA relative to UGCAUGU
10,B26,0.00906 KA relative to UGCAUGU
11,B27,0.00468 KA relative to UGCAUGU
12,B28,0.0117 KA relative to UGCAUGU
13,B29,0.00514 KA relative to UGCAUGU
14,B30,0.0152 KA relative to UGCAUGU
15,B31,0.0185 KA relative to UGCAUGU
